According to publication PMC11394198:
Results are given in words; binding and its absence hold for the method and conditions named. For some of these results: Binding seen in cells or lysates may run through a third protein. Some results given as binding are weak or reduced against the parent protein; the word gives no strength. Tags and fused reporters may be left off the sequences shown.

The chains behind the UniProt entries cited, without tags or fusion partners.
UniProt Q94BT6: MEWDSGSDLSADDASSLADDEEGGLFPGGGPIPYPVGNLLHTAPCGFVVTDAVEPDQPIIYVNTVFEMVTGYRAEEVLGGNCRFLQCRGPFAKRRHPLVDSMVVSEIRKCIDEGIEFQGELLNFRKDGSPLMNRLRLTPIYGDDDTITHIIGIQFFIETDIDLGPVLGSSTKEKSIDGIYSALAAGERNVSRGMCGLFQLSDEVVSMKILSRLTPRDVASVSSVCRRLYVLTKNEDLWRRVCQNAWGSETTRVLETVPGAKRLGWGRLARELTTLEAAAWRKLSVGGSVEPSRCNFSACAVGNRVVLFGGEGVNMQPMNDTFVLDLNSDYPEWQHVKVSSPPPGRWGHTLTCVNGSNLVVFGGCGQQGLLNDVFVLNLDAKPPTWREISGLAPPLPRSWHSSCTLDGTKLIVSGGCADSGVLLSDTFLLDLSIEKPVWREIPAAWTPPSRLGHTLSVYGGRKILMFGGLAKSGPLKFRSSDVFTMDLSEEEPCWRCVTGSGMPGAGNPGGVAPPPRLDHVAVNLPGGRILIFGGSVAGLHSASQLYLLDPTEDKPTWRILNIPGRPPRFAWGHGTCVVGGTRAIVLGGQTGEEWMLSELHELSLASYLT
UniProt P92973: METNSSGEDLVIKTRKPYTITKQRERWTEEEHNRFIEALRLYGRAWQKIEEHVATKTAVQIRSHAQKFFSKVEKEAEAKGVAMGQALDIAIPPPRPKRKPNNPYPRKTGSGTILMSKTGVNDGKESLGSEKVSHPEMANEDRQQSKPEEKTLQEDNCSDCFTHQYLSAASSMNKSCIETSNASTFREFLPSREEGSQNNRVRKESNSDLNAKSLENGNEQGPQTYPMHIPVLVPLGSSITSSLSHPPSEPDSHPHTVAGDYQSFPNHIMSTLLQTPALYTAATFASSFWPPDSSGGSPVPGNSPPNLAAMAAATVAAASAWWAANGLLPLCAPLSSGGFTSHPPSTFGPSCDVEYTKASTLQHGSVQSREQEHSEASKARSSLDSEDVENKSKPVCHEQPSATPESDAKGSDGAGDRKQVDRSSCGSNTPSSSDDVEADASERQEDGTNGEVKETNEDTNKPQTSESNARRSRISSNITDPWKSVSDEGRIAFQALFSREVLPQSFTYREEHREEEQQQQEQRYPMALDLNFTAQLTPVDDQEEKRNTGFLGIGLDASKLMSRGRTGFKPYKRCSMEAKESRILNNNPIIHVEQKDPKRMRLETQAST

T1: TIMING OF CAB EXPRESSION 1 (TOC1), full-length, GAL4 fusion (Arabidopsis thaliana) (UniProt Q9LKL2)
T1 sequence: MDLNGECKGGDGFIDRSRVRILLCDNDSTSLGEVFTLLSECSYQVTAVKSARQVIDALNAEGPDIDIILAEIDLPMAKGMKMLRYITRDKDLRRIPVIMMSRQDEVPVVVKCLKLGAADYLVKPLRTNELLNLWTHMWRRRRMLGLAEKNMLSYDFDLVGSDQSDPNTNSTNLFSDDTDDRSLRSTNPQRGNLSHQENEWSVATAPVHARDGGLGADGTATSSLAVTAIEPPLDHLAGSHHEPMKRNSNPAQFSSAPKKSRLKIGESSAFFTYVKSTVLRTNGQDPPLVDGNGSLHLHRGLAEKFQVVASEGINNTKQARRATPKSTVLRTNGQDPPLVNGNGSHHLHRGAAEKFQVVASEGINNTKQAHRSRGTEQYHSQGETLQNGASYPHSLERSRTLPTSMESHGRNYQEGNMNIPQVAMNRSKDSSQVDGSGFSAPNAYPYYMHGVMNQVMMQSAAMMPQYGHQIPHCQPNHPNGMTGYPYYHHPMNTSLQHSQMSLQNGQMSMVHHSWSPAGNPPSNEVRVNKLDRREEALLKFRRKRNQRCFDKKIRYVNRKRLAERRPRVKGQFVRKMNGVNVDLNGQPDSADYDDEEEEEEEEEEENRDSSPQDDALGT

T2: LIGHT … PERIOD 1 (LIP1), full-length, GAL4 fusion (Arabidopsis thaliana) (UniProt Q9C5J9)
T2 sequence: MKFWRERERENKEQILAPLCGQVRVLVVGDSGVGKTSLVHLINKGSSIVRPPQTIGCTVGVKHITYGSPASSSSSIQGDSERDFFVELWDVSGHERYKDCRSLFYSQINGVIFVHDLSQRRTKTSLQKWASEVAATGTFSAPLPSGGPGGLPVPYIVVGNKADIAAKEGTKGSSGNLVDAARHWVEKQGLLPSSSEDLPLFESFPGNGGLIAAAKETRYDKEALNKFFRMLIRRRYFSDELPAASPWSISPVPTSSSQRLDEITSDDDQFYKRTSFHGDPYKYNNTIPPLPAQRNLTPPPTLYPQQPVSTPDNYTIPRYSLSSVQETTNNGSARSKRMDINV

T3: GIGANTEA (GI), full-length, GAL4 fusion (Arabidopsis thaliana) (UniProt Q9SQI2)
T3 sequence: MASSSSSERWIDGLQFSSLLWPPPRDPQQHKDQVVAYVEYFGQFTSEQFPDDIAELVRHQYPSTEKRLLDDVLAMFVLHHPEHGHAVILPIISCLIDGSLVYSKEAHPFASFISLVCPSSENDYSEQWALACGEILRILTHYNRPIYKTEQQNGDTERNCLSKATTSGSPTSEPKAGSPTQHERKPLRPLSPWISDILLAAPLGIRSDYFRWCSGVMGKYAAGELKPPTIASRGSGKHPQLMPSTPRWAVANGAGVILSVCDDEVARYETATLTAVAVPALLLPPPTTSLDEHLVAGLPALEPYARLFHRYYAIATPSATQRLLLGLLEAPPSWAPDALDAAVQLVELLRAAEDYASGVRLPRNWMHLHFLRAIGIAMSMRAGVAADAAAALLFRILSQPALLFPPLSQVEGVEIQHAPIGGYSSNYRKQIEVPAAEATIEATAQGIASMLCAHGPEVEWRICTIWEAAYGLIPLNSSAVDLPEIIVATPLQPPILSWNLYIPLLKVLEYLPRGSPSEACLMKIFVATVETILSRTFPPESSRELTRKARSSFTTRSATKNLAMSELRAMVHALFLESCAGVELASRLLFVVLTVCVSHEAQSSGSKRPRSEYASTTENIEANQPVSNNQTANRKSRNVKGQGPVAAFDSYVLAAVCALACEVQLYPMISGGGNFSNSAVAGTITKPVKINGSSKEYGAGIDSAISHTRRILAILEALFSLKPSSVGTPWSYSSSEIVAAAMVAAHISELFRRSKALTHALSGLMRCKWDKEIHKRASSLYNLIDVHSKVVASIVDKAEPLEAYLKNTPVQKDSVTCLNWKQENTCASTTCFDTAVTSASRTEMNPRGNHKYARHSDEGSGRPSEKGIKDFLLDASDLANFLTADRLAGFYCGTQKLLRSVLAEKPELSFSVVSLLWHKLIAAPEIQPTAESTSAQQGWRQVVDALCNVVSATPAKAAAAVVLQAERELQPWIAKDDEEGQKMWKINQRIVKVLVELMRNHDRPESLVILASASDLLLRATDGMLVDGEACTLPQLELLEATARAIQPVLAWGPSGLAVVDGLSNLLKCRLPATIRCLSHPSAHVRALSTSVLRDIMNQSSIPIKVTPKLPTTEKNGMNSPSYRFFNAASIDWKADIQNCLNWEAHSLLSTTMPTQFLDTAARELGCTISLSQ

T4: LIP1 fused to the N- or C-terminal fragment of firefly luciferase (Arabidopsis thaliana) (UniProt Q9C5J9)
T4 sequence: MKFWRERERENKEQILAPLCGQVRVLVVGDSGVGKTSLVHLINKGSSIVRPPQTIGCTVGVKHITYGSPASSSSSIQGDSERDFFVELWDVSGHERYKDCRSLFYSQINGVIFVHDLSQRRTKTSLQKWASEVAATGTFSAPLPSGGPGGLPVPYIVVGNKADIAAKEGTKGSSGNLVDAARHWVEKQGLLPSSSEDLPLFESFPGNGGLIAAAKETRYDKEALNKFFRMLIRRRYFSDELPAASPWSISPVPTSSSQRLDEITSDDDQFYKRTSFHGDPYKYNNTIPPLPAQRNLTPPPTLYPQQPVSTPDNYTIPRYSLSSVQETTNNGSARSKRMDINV


How the values were obtained:
[1] = molecular target: T1, TIMING OF CAB EXPRESSION 1 (TOC1), full-length, GAL4 fusion (Arabidopsis thaliana); assay: two-hybrid; GAL4-based yeast two-hybrid, pGADT7-pGBKT7 pairs co-transformed in PJ69-4A, either (AD and BD) configuration; growth on Ade-/Leu-/Trp- SD plates at 30 °C and β-galactosidase activity (ONPG) of liquid cultures
[2] = molecular target: T2, LIGHT … PERIOD 1 (LIP1), full-length, GAL4 fusion (Arabidopsis thaliana); assay: as above
[3] = molecular target: ZEITLUPE (ZTL), full-length, GAL4 fusion (Arabidopsis thaliana) (UniProt Q94BT6); assay: as above
[4] = molecular target: … CLOCK ASSOCIATED 1 (CCA1), GAL4 fusion (Arabidopsis thaliana) (UniProt P92973); assay: as above
[5] = molecular target: T3, GIGANTEA (GI), full-length, GAL4 fusion (Arabidopsis thaliana); assay: as above
[6] = molecular target: T4, LIP1 fused to the N- or C-terminal fragment of firefly luciferase (Arabidopsis thaliana); assay: split reporter; luciferase complementation: LIP1 or GEF7 fused to nLUC or cLUC in either configuration, coexpressed in E. coli BL21 Rosetta cells; luminescence of freshly grown bacterial cultures

Row | Molecule | binding [1] | binding [2] | binding [3] | binding [4] | binding [5] | binding [6]
1 | ZEITLUPE (ZTL), full-length, GAL4 fusion (from UniProt Q94BT6 1-609) | binds | no binding |  |  |  | 
2 | GIGANTEA (GI), full-length, GAL4 fusion (protein, UniProt Q9SQI2 1-1173) MASSSSSERWIDGLQFSSLLWPPPRDPQQHKDQVVAYVEYFGQFTSEQFPDDIAELVRHQYPSTEKRLLDDVLAMFVLHHPEHGHAVILPIISCLIDGSLVYSKEAHPFASFISLVCPSSENDYSEQWALACGEILRILTHYNRPIYKTEQQNGDTERNCLSKATTSGSPTSEPKAGSPTQHERKPLRPLSPWISDILLAAPLGIRSDYFRWCSGVMGKYAAGELKPPTIASRGSGKHPQLMPSTPRWAVANGAGVILSVCDDEVARYETATLTAVAVPALLLPPPTTSLDEHLVAGLPALEPYARLFHRYYAIATPSATQRLLLGLLEAPPSWAPDALDAAVQLVELLRAAEDYASGVRLPRNWMHLHFLRAIGIAMSMRAGVAADAAAALLFRILSQPALLFPPLSQVEGVEIQHAPIGGYSSNYRKQIEVPAAEATIEATAQGIASMLCAHGPEVEWRICTIWEAAYGLIPLNSSAVDLPEIIVATPLQPPILSWNLYIPLLKVLEYLPRGSPSEACLMKIFVATVETILSRTFPPESSRELTRKARSSFTTRSATKNLAMSELRAMVHALFLESCAGVELASRLLFVVLTVCVSHEAQSSGSKRPRSEYASTTENIEANQPVSNNQTANRKSRNVKGQGPVAAFDSYVLAAVCALACEVQLYPMISGGGNFSNSAVAGTITKPVKINGSSKEYGAGIDSAISHTRRILAILEALFSLKPSSVGTPWSYSSSEIVAAAMVAAHISELFRRSKALTHALSGLMRCKWDKEIHKRASSLYNLIDVHSKVVASIVDKAEPLEAYLKNTPVQKDSVTCLNWKQENTCASTTCFDTAVTSASRTEMNPRGNHKYARHSDEGSGRPSEKGIKDFLLDASDLANFLTADRLAGFYCGTQKLLRSVLAEKPELSFSVVSLLWHKLIAAPEIQPTAESTSAQQGWRQVVDALCNVVSATPAKAAAAVVLQAERELQPWIAKDDEEGQKMWKINQRIVKVLVELMRNHDRPESLVILASASDLLLRATDGMLVDGEACTLPQLELLEATARAIQPVLAWGPSGLAVVDGLSNLLKCRLPATIRCLSHPSAHVRALSTSVLRDIMNQSSIPIKVTPKLPTTEKNGMNSPSYRFFNAASIDWKADIQNCLNWEAHSLLSTTMPTQFLDTAARELGCTISLSQ | binds | no binding | binds |  |  | 
3 | ROP (RHO OF PLANTS) GUANINE NUCLEOTIDE EXCHANGE FACTOR 7, full-length, GAL4 fusion (protein, UniProt Q9LZN0 1-546) MDGSSENLPEVEEKGRESSCCSSETTRQEEEEQSPSCTEDFTASPVSSRWSVKNIDGEKKKIRSDSRVSEVEMMKERFSKLLLGEDMSGSGNGVCTALAISNAITNLCATLFGQLWRLEPLPTEKKEMWRREMEWLLCVSDHIVEMTPTWQTFPDGTKLEIMTCRPRSDLYVNLPALRKLDNMLLEILDSFEETEFWYVDQGIMAHESAADGSSSFRKSFQRQEDKWWLPVPRVSPGGLQENSRKQLQHKRDCTNQILKAAMAINSITLADMEIPESYLESLPRKGRSCLGDLIYRYISSDQFSPECLLDCLDLSSEHQAIEIANRVESSIYLWHKRTNSKPATNTKTSWEMVKELMVDADKLELMADRAESLLLSLKQRFPGLPQTALDMSKIQYNKDIGKSILESYSRVLESLAFNIVARIDDLLFVDDLTRHSSDQIPTTLGNNGNDAPKSIAVPVSNYTTPSYSPSKQELRSSITVPPSPSRFKIPHSSSVKRVLTAYVTKNEPRLKNLPLERSSRSSSSERLSLEKCMKESLNVSNLDPGI | binds | binds | binds | no binding | binds | 
4 | GEF7 fused to the N- or C-terminal fragment of firefly luciferase (protein, UniProt Q9LZN0 1-546) MDGSSENLPEVEEKGRESSCCSSETTRQEEEEQSPSCTEDFTASPVSSRWSVKNIDGEKKKIRSDSRVSEVEMMKERFSKLLLGEDMSGSGNGVCTALAISNAITNLCATLFGQLWRLEPLPTEKKEMWRREMEWLLCVSDHIVEMTPTWQTFPDGTKLEIMTCRPRSDLYVNLPALRKLDNMLLEILDSFEETEFWYVDQGIMAHESAADGSSSFRKSFQRQEDKWWLPVPRVSPGGLQENSRKQLQHKRDCTNQILKAAMAINSITLADMEIPESYLESLPRKGRSCLGDLIYRYISSDQFSPECLLDCLDLSSEHQAIEIANRVESSIYLWHKRTNSKPATNTKTSWEMVKELMVDADKLELMADRAESLLLSLKQRFPGLPQTALDMSKIQYNKDIGKSILESYSRVLESLAFNIVARIDDLLFVDDLTRHSSDQIPTTLGNNGNDAPKSIAVPVSNYTTPSYSPSKQELRSSITVPPSPSRFKIPHSSSVKRVLTAYVTKNEPRLKNLPLERSSRSSSSERLSLEKCMKESLNVSNLDPGI |  |  |  |  |  | binds
5 | LUX ARRHYTHMO (LUX), GAL4 fusion (protein, UniProt Q9SNB4 1-323) MGEEVQMSDYDVSGDGDRVSEWEMGLPSDEDLASLSYSLIPPNLAMAFSITPERSRTIQDVNRASETTLSSLRGGSSGPNTSSSNNNVEEEDRVGSSSPGSDSKKQKTSNGDGDDGGGVDPDSAMAAEEGDSGTEDLSGKTLKRPRLVWTPQLHKRFVDVVAHLGIKNAVPKTIMQLMNVEGLTRENVASHLQKYRLYLKRMQGLTNEGPSASDKLFSSTPVPPQSFQDIGGGGGSSGNVGVPIPGAYGTQQMMQMPVYAHHMGMQGYHHQNHNHDPYHQNHRHHHGAGGNGAFESNPYMMQQNKFGSMASYPSVGGGSANEN |  | no binding |  |  |  | 
6 | PSEUDO-RESPONSE REGULATOR 9 (PRR9), GAL4 fusion (protein, UniProt Q8L500 1-468) MGEIVVLSSDDGMETIKNRVKSSEVVQWEKYLPKTVLRVLLVESDYSTRQIITALLRKCCYKVVAVSDGLAAWEVLKEKSHNIDLILTELDLPSISGFALLALVMEHEACKNIPVIMMSSQDSIKMVLKCMLRGAADYLIKPMRKNELKNLWQHVWRRLTLRDDPTAHAQSLPASQHNLEDTDETCEDSRYHSDQGSGAQAINYNGHNKLMENGKSVDERDEFKETFDVTMDLIGGIDKRPDSIYKDKSRDECVGPELGLSLKRSCSVSFENQDESKHQKLSLSDASAFSRFEESKSAEKAVVALEESTSGEPKTPTESHEKLRKVTSDQGSATTSSNQENIGSSSVSFRNQVLQSTVTNQKQDSPIPVESNREKAASKEVEAGSQSTNEGIAGQSSSTEKPKEEESAKQRWSRSQREAALMKFRLKRKDRCFDKKVRYQSRKKLAEQRPRVKGQFVRTVNSDASTKS |  | no binding |  |  |  | 
